Assay results published in PMC12136788.
Some of the results follow.

T1: UNK ZnF1-3 (human, UniProt Q9C0B0 31-174)
T1 sequence: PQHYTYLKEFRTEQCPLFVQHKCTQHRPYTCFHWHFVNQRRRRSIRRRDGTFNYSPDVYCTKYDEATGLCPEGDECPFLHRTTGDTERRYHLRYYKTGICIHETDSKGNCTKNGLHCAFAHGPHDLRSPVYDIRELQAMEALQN

B1: chr7:143079985:143079986:+_ENSG00000159840_ENST00000392910|hu_hu|FALSE|FALSE (ssRNA)
RNA: GGGAGUUCUACAGUCCGACGAUCCUGAGCCGGAGCCGGAACCUGGGGCAGAGGCUGGGAGCUGGAAGGGGACUUCCAAGGAGGCAGGGGUGCUGUGCCCCCGGCUGCAGGCUUGGUACUGGACUUGGAACUGAAUGGAGUGGCCAACAGAGGAUUGAGCAUCA
B2: chrX:140365796:140365797:-_ENSMUSG00000031285_ENSMUST00000033642|mus_hu|FALSE|FALSE (ssRNA)
RNA: GGGAGUUCUACAGUCCGACGAUCCUUCUCAUUACUCAGUGCCUGCAAGGUUCUGGUUCGGUAGAAGCUACAGUGGGCGCUGUGAGUGGGGCUAGGCAACCCAUUCAUCCGGGAGCCUCGCAUGUUCCUGGAUGUCUUAUCUCUCAACAGAGGAUUGAGCAUCA
B3: chr2:91074313:91074314:-_ENSMUSG00000002109_ENSMUST00000150427|mus_mus|FALSE|FALSE (ssRNA)
RNA: GGGAGUUCUACAGUCCGACGAUCAGGUCGCCCCUUUAAGGAAGAUAGGUUUGUCCUUGAUGCCAAAGUUCCAGAUCAUAAUAUCUCCCCCUUUGGAGCCCACAGCCAGGGUACUGGGAUGAGUCGGGUGCCAUGCCAAGGACGCAACAGAGGAUUGAGCAUCA
B4: chr17:1257564:1257565:-_ENSG00000108953_ENST00000571732|hu_mus|FALSE|FALSE (ssRNA)
RNA: GGGAGUUCUACAGUCCGACGAUCACCCUGCAUGUCUGAGGUCCACAGCGUCAGGUUAUCACGUAGCAGCUGCAUGAUGAGCGUAGAGUCCUUAUAGCUUUCUUCACUCAGCGUGUCCAGUUCUGCAAUUGCGUCAUCAAAAGCCAACAGAGGAUUGAGCAUCA
B5: 123982623_123982743_2596_CDS_ENSG00000168916_ENST00000504926|human|control|control (ssRNA)
RNA: GGGAGUUCUACAGUCCGACGAUCGGCCGAUGGCAUAUUUUUCUGUUUAGUUUCCUCCUUGCCCAGCUCUUUCAAGGGGAGCUCACUUUUCCUUUCACAGUCUCCUCUCCCAGUCUGGGCCAUUUUCUGCUCUGCCAGCCUCUGCAACAGAGGAUUGAGCAUCA
B6: 169799468_169801611_1790_CDS_ENSG00000000460_ENST00000359326|human|control|control (ssRNA)
RNA: GGGAGUUCUACAGUCCGACGAUCCAACAGUAUUGAUAGGUUGAUGAGUUGAUAACAUUCUCCAGGGCAUGACUUUAUCAGAUGAGCCACUAUGGUGACAUGGUGUGCACACAGUUCAGCAGUCCCAUAUCGAGCAAGGAAGCACAACAGAGGAUUGAGCAUCA
B7: chr1:109605286:109605287:-_ENSG00000197780_ENST00000461096|hu_mus|hu_hu_hu_mus_True|88_88 (ssRNA)
RNA: GGGAGUUCUACAGUCCGACGAUCAAGUUUCAGAGUAACAUUCAGUAUACUUAAAUCAUGCAAUUAUCCUUAUUAUAAGCUAAGCAGAAUAAUAAUUUAAUACCGUAAGUGAACUACACACAAAGCCUGAACCGCGAAAAUGGUCAACAGAGGAUUGAGCAUCA
B8: chr7:74146866:74146867:+_ENSG00000077809_ENST00000416070|hu_hu|FALSE|FALSE (ssRNA)
RNA: GGGAGUUCUACAGUCCGACGAUCUUCCUUUGCAAGUAAUAUCCUCUCCAGGCGAGGAAUUCCGUAAGUAGAUGGCCUUCUAAAAGGAAUUCCUUCAGGAAGUCCUUCUACAUAAAGAUCUUCAACAUGAGACUGGAAAAGAGGCAACAGAGGAUUGAGCAUCA
B9: chrX:71482573:71482574:-_ENSMUSG00000031328_ENSMUST00000144429|mus_hu|motif|central (ssRNA)
RNA: GGGAGUUCUACAGUCCGACGAUCCUGCCACUGAGAAAGGGCUCUUAGGGAUGGGAUCCCCUCCAUAAGUGACAUUGACGCCGGCUGGACCCUGCUGGACAGGCGUGUACUUGACUGUGUAGGUGUUGUCAUGGUGGUCGAUGACAACAGAGGAUUGAGCAUCA
B10: 7358052_7359150_1645_CDS_ENSMUSG00000024969_ENSMUST00000032557|mouse|control|control (ssRNA)
RNA: GGGAGUUCUACAGUCCGACGAUCUUCCAGCUCAGAGCUCUUGUAGCCAAGGAGCAGAUAGGUAGCCAUCACUUCGUUGUACCUCUGGCCUACCAGCGAGUCCUGGAUCUCUUCCCGUGUGUAACCCAUUGACACCAUCAACUCCAACAGAGGAUUGAGCAUCA
B11: chr11:87793471:87793472:-_ENSMUSG00000020483_ENSMUST00000020775|mus_mus|mus_mus_mus_hu_False|48_88 (ssRNA)
RNA: GGGAGUUCUACAGUCCGACGAUCUGGACUUGAAAAUAAAAGAAUAAGCUAGAUUUCCCACCCCCCCACAUUGUCAACCCUACACGAGUUCUGAAUGGGCGACUCAUGAAAAUCAGCAGCUCAAACGGCAAUGACCACCCCACCCAACAGAGGAUUGAGCAUCA
B12: chr16:45382771:45382772:-_ENSMUSG00000022661_ENSMUST00000163230|mus_mus|mus_mus_mus_hu_True|1_68 (ssRNA)
RNA: GGGAGUUCUACAGUCCGACGAUCCUGGGUCAUGUUAUAAGACAAAUGGACAGGGAGGGCAUGCUUCUGUAAAGAUGUGAGCUAUUGUCUAAGACUAACAAUAUUUAUCUAGCUAUAAAAAUAAGUUAAAUGAAUAAACAUUACCAACAGAGGAUUGAGCAUCA
B13: 76126223_76214478_1189_CDS_ENSMUSG00000034098_ENSMUST00000038364|mouse|control|control (ssRNA)
RNA: GGGAGUUCUACAGUCCGACGAUCCUUCCUAGAUAUGUCAUCACUGUUGGGAUUCUCAUUUUCUUGUGUAAUAUACUUUUGAUUUUGUAAGUCUAAAAGCAUACUUUUCAUCUUGCUGUAUUCAAUGGCCAUGCAGUUGUCCCCCAACAGAGGAUUGAGCAUCA
B14: chr7:118218646:118218647:-_ENSMUSG00000005610_ENSMUST00000162415|mus_mus|FALSE|FALSE (ssRNA)
RNA: GGGAGUUCUACAGUCCGACGAUCUUCCUGUUUGAGUAAACUGAUUAAAGAGCUUGCUUUUUCUUUAUCUUCAUCACUUCUAUCAAGUGACAGGAUGAUCACUUUGCUUAGCAUCUCAGGAAGAAAGUGUUUUGGAGCUCUCAUCAACAGAGGAUUGAGCAUCA
B15: chr11:69480760:69480761:-_ENSMUSG00000059796_ENSMUST00000163666|mus_mus|motif|central (ssRNA)
RNA: GGGAGUUCUACAGUCCGACGAUCUGGGGGGGGAAGGAGACGGCGCCUGGGGCAGAGCCUACCCCAAAGAAAAGGGUGUCGGAAAUGUUCACGGUUCCUUCUUUUUGCCUCAAAAAGUGACAUUUAUUCAUAGAGAAAAAAAACCAACAGAGGAUUGAGCAUCA
B16: 55424567_55428146_759_CDS_ENSMUSG00000029778_ENSMUST00000070756|mouse|control|control (ssRNA)
RNA: GGGAGUUCUACAGUCCGACGAUCAGCAUCGAAGUAAUGGGGGAAGGGCUCCGACCAGCCAUCCUCAGUGCAGUUCCGGCCCACGACCCCCAUGUCUGUGAUCUCCAAGGAAUUACUAUCAGCAAAGCCAGAAUCCCCUAUGGUCAACAGAGGAUUGAGCAUCA
B17: chr1:121469438:121469439:-_ENSMUSG00000026383_ENSMUST00000052404|mus_hu|FALSE|FALSE (ssRNA)
RNA: GGGAGUUCUACAGUCCGACGAUCCUGGCUGUUUAUGUUAACAUCGAUGUUGGAUCGAGGGGACAGCAAAGGACUGUUCUCCAUCUCAAGCUGUUUGAGCUUCUCUGAGGUGUCUUUUAAUGUCUCAUAUUCAACUUCAGGUUCCAACAGAGGAUUGAGCAUCA
B18: chr16:32084594:32084595:-_ENSMUSG00000023791_ENSMUST00000096109|perfect_dup|FALSE|FALSE (ssRNA)
RNA: GGGAGUUCUACAGUCCGACGAUCAGAAAACACUUAGCUGUACAAAACUUACAGGGAAAAGUGGCCAUAUUUGAAAACAGCUAAAAGGAUCAAAGUAGAACACAGAAUCGUAAUGAGCAGCGUCACAGAACACACUAAAGAGGUCAACAGAGGAUUGAGCAUCA
B19: chr2:39052001:39052002:-_ENSMUSG00000026753_ENSMUST00000028087|mus_mus|FALSE|FALSE (ssRNA)
RNA: GGGAGUUCUACAGUCCGACGAUCCAACUGGUAUCAAAUCAACACAUCAAUGCUACAAGUAUUAAAUGUUUUUCUAAUACUAUAGAAAUAAAAACAUUAAUAUGGCAGUUAUGUUCUUUAGGCACAAUUUAGUGAUUUUUUUAACAACAGAGGAUUGAGCAUCA
B20: chr6:75965845:75965846:-_ENSG00000112697_ENST00000230461|hu_mus|FALSE|FALSE (ssRNA)
RNA: GGGAGUUCUACAGUCCGACGAUCAUUUGGUUUCAGAAUAUAAAAUUAAAUGGUGAUGUCAGCAGUGUUACUACUGUUUCUAUAUUUAUGAUUAAUUACUAGCAGUACAACUCCCAGAAGGAAAGAGAUGGAUCCAAUAGUGAUCAACAGAGGAUUGAGCAUCA
B21: chr18:34657717:34657718:-_ENSMUSG00000036501_ENSMUST00000040506|mus_mus|motif|central (ssRNA)
RNA: GGGAGUUCUACAGUCCGACGAUCUCAUUGUCUGGAUGUCCUCCCUGCUGCAGCUCAUCAAGUGGAAUUCCAAAUAUUUUGCGGGCAAGAUCGGAGUUGCAGUUACUCAAGGAAGGGGAGGAGCUCUUCCUCAUAGCUUUUUUGCAACAGAGGAUUGAGCAUCA
B22: chr16:36052476:36052477:-_ENSMUSG00000003955_ENSMUST00000004057|mus_hu|FALSE|FALSE (ssRNA)
RNA: GGGAGUUCUACAGUCCGACGAUCUUCAAAUCAGAGCUUCUGGUAAGCCUUAGAGAUGAGGAAACAUCUCUUUCACAUAACCUAAAACAGCUUCUCAUAAUUGCACUGGCAAACAGUUCUUAUAAGAUACUUAAAUCUUUGCGACAACAGAGGAUUGAGCAUCA

Biological target: T1, UNK ZnF1-3
Assay: nsRBNS (natural sequence RNA bind-n-seq); RBNS binding buffer (assumed for nsRBNS): 25 mM Tris pH 7.5, 150 mM KCl, 3 mM MgCl2, 0.01% Triton X-100, 500 ug/ml BSA, 20 U/ml SUPERase-In, 4 C; UNK is unkempt and MSI1 is Musashi-1; names of the RNAs are library labels; protein concentration not given here; high values mean tight binding

| Binder | binding signal |
| --- | --- |
| B1 | 1.58 enrichment R |
| B2 | 0.608 enrichment R |
| B3 | 1.3 enrichment R |
| B4 | 0.947 enrichment R |
| B5 | 0.549 enrichment R |
| B6 | 1.25 enrichment R |
| B7 | 0.691 enrichment R |
| B8 | 0.807 enrichment R |
| B9 | 0.851 enrichment R |
| B10 | 1.05 enrichment R |
| B11 | 1.8 enrichment R |
| B12 | 2.24 enrichment R |
| B13 | 0.51 enrichment R |
| B14 | 0.567 enrichment R |
| B15 | 1.29 enrichment R |
| B16 | 0.94 enrichment R |
| B17 | 0.716 enrichment R |
| B18 | 1.72 enrichment R |
| B19 | 0.623 enrichment R |
| B20 | 1.58 enrichment R |
| B21 | 0.887 enrichment R |
| B22 | 0.611 enrichment R |
